Measurements: PubChem BioAssay AID2675 (National Center for Advancing Translational Sciences (NCATS), 2010)
Out of some 280,000 compounds screened, about 100 (0.036%) were called active. The shares of active, inactive and inconclusive entries below differ from those in the screen. Calls come from the whole dose curve; as a rule, active = well fitted inhibition curve with a large enough effect in the signal ratio, with a control signal flat (not every such curve was filed as active); inconclusive = small, poorly fitted or top-dose-only effect, or effect the other way, or a change in a side signal; inactive = no such curve, though single readings can be large or run the other way; the % refers to the signal ratio. Potencies of inconclusive entries are doubtful fits and often do not repeat. A note “side channel” means that the fit belongs to a control or component signal, not to the main read-out.

target: Muscleblind-like protein 1 (Homo sapiens) (UniProt Q9NR56); test: qHTS Assay for Inhibitors of MBNL1-poly(CUG) RNA binding; conditions: TR-FRET MBNL1-His/biotin-(CUG)12 binding, 665/545 ratio; series mostly up to 57.5 µM
Procedure, shortened: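 His-tagged MBNL1 binding to biotinylated (CUG)12 RNA was measured by TR-FRET using terbium anti-His antibody (0.055 ng/ul final) and streptavidin-XL665 (5 nM final). Compounds were titrated 92 nM to 58 uM; 60 min at room temperature.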
Potency is the fitted concentration of half-maximal effect; tags give direction and shape of the fitted curve or compound fluorescence and quenching.

Chain of UniProt Q9NR56 (Q9NR56 whole entry, looked up): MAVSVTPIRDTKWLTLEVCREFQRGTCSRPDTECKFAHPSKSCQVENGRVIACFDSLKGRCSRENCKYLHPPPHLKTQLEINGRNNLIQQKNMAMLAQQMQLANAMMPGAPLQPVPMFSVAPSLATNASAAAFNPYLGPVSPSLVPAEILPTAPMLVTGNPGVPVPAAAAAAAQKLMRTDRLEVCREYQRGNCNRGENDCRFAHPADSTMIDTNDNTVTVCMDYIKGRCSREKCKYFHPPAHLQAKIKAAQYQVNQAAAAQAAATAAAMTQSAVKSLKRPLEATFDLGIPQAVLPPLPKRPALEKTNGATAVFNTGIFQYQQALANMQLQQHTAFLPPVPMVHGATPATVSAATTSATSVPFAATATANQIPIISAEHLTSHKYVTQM

SMILES	Potency
CC(=O)Nc1ccc(N=Nc2c(C)[nH]n(C(N)=S)c2=O)cc1	inconclusive: 7.08 µM [quencher, partial curve]
O=C1c2cccc3cc(Br)cc(c23)C(=O)N1Nc1ccccc1	inconclusive: 7.94 µM [quencher, side channel, partial curve]
CCOCCCn1c(=NC(C)=O)c(C#N)cc2c(=O)n3cccc(C)c3nc21	inconclusive: 4.47 µM [quencher, side channel, full curve]
COc1ccc2c(C)c(CCC(=O)NC3CC3)c(=O)oc2c1C	inactive
COc1ccc(S(=O)(=O)Nc2ccccc2N2CCOCC2)cc1[N+](=O)[O-]	inconclusive: 12.6 µM [quencher, side channel, partial curve]
CCOCc1nnc(NC(=O)c2cc(C(=O)OC)cc([N+](=O)[O-])c2)s1	inconclusive: 3.16 µM [quencher, side channel, partial curve]
O=C(NCC(=O)N(Cc1ccccc1)C(C(=O)NC1CCCCC1)c1ccco1)c1ccco1 (stereo not drawn)	inconclusive: 22.4 µM [quencher, side channel, single point]
c1ccc(CCNc2ccnc3cc4ccccc4cc23)cc1	inconclusive: 12.6 µM [quencher, side channel, partial curve]
COc1ccc(N2C(=O)C3C4C=CC(C4)C3C2=O)c([N+](=O)[O-])c1 (stereo not drawn)	inconclusive: 17.8 µM [quencher, side channel, partial curve]
CCCCCNCC(=O)Nc1cccc(C(=O)Nc2cccc(C(F)(F)F)c2)c1	inactive
NC(=O)c1ccsc1NC(=O)COc1ccccc1	inactive
O=[N+]([O-])c1cccc(Oc2cnccn2)c1	inconclusive: 10 µM [quencher, side channel, partial curve]
O=C(c1cccc2ccccc12)C1CCCN(C(=O)CCN2CCCO2)C1 (stereo not drawn)	inconclusive: 3.16 µM [quencher, side channel, full curve]
COc1ccc([N+](=O)[O-])cc1NS(=O)(=O)c1cccc(C(=O)O)c1	inconclusive: 39.8 µM [quencher, single point]
O=C(c1cc(COc2cccc3cnccc23)on1)N1CCC(c2ccccc2Cl)C1 (stereo not drawn)	inactive
Cc1cccc(C(=O)NC2C(=O)NNC2c2ccc(Cl)cc2)c1 (stereo not drawn)	inconclusive: 100 µM [inhibitor, single point]
Clc1ccc(-c2ccc(/C=N/Nc3cc(N4CCOCC4)nc(N4CCOCC4)n3)o2)cc1	inactive
Cc1ccc(-c2cc(C(=O)N(C)Cc3cnn(C)c3C)c3cc(Br)ccc3n2)cc1	inconclusive: 25.1 µM [fluorescent, side channel, partial curve]
